# In the antibiotic and cytotoxicity screens of Wong et al. (2023):
# The list shows a part of the results.
# Test system: HSkMC (human skeletal muscle cells)
# Assay: cytotoxicity call (relative viability < 0.9)
# Details: 10 µM
row,Compound,cytotoxicity call
1,CCS(=O)(=O)Nc1ccc2c(c1)C(=O)N(C)[C@H]1CC[C@@H](CC(=O)NCc3ccccc3F)O[C@H]1CO2,inactive
2,CC(=O)N1CCC(C(=O)N2CCC(n3cc(C(C)(C)N)nn3)CC2)CC1,inactive
3,COc1ccc(NC(=O)N(C)C[C@@H]2OCCCC[C@@H](C)Oc3ccc(NC(=O)C4CCCCC4)cc3C(=O)N([C@@H](C)CO)C[C@H]2C)cc1,inactive
4,Cc1ccc(S[C@]2(C(=O)NC(C)C)CC(=O)N(Cc3cc(C(F)(F)F)cc(C(F)(F)F)c3)[C@@H]2c2ccc(CO)cc2)cc1,inactive
5,O=C(C[C@@H]1C[C@H]2c3cc(NS(=O)(=O)c4ccc(F)cc4)ccc3O[C@H]2[C@@H](CO)O1)NCc1ccccn1,inactive
6,CSc1ccc2cc(CN(C[C@H]3CCCO3)C(=O)c3ccco3)c(N(C)Cc3csc(C)n3)nc2c1,inactive
7,Cc1ccc(NC(=O)C[C@@H](N)C(=O)O)cc1,inactive
8,Cc1noc(C)c1NC(=O)N(C)C[C@H]1Oc2c(NC(=O)c3ccc(-c4nccs4)cc3)cccc2C(=O)N([C@@H](C)CO)C[C@@H]1C,inactive
9,CCCCCC(=O)Cc1cc(O)cc(O)c1C(=O)Oc1cc(CC(=O)CCCCC)c(C(=O)O)c(OC)c1,inactive
10,COc1ccc(CCNC(=O)Nc2nn(Cc3ccc(COc4cccc(OC)c4)cc3)c3ccccc23)cc1,inactive
11,C[C@H](CO)N1C[C@H](C)[C@H](CN(C)C(=O)NC2CCCCC2)OCc2ccccc2-c2c(n(C)c3ccccc23)C1=O,inactive
12,C[C@H](CO)N1C[C@H](C)[C@@H](CN(C)S(=O)(=O)c2ccc(F)cc2)Oc2ccc(NC(=O)CCCN(C)C)cc2C1=O,inactive
13,CC(C)NC(=O)Nc1ccc2c(c1)C(=O)N([C@@H](C)CO)C[C@H](C)[C@H](CN(C)Cc1ccc(C(=O)O)cc1)O2,inactive
14,C[C@H]1CN([C@@H](C)CO)C(=O)c2cc(NC(=O)CCN3CCOCC3)ccc2O[C@@H]1CN(C)Cc1ccc(C(=O)O)cc1,inactive
15,CN(C)CCCNC(=O)C[C@@H]1CC[C@H]2[C@H](COc3ccc(NC(=O)c4ccc5c(c4)OCO5)cc3C(=O)N2C)O1,inactive
16,C[C@@H]1CCCCO[C@@H](CN(C)Cc2ccc3c(c2)OCO3)[C@@H](C)CN([C@H](C)CO)C(=O)c2cc(NC(=O)Nc3ccc(C(F)(F)F)cc3)ccc2O1,inactive
17,O=C(C[C@H]1CC[C@@H]2[C@H](COC[C@@H](O)CN2S(=O)(=O)c2ccc(Cl)cc2)O1)NCc1ccncn1,inactive
18,COCC(=O)N1C[C@H](C)[C@H](OC)CN(C)C(=O)c2ccc(NC(=O)Nc3ccccc3)cc2OC[C@@H]1C,inactive
19,CC(C)=CCC/C(C)=C/CC1=C(C)C(=O)c2ccccc2C1=O,inactive
20,C[C@@H]1CN([C@@H](C)CO)C(=O)c2cc(C3=CCCC3)cnc2O[C@@H]1CN(C)C(=O)c1ccc2c(c1)OCO2,inactive
21,C[C@@H]1CN([C@@H](C)CO)C(=O)CCCn2cc(nn2)CO[C@H]1CN(C)C(=O)Nc1ccc2c(c1)OCCO2,inactive
22,C[C@@H]1CN([C@@H](C)CO)S(=O)(=O)c2ccc(C#C[C@@H](C)O)cc2O[C@@H]1CN(C)C(=O)c1ccncc1,inactive
23,COc1ccc(NC(=O)Nc2ccc3c(c2)C(=O)N([C@@H](C)CO)C[C@@H](C)[C@H](CN(C)C(=O)Nc2cccc4ccccc24)OCCCC[C@H](C)O3)cc1,inactive
24,CN1C(=O)c2cc(NC(=O)C3CCOCC3)ccc2OC[C@@H]2O[C@@H](CC(=O)NCc3ccc4c(c3)OCO4)CC[C@@H]21,inactive
25,C[C@@H]1CN([C@@H](C)CO)C(=O)c2cc(NC(=O)CCC(F)(F)F)ccc2O[C@H]1CN(C)C(=O)Nc1cccc2ccccc12,inactive
26,COCC(=O)Nc1ccc2c(c1)C(=O)N(C)C[C@@H](OC)[C@@H](C)CN(Cc1ccccc1OC)[C@@H](C)CO2,inactive
27,Cc1cc(C)c2[nH]c3ccccc3c2n1,inactive
28,C[C@@H]1CCCCO[C@H](CN(C)C(=O)NC2CCCCC2)[C@@H](C)CN([C@@H](C)CO)C(=O)c2cc(NC(=O)c3ccccc3)ccc2O1,inactive
29,C[C@@H]1CN([C@@H](C)CO)C(=O)CCCn2nncc2CO[C@@H]1CN(C)S(C)(=O)=O,inactive
